# Reference: PubChem BioAssay AID1745853 (National Center for Advancing Translational Sciences (NCATS), 2022)
# The list shows a part of the results. Shown are side measurements of this screen, not its main read-out; they come without a call.
# Assays:
# Test in all cases: Primary Screen for Target Class Profiling of Small Molecule Inhibitors of Methyltransferases
# [1] = target: Glycine N-methyltransferase (Homo sapiens) (UniProt Q14749); settings: purified enzyme, MTase-Glo SAH luminescence; measured here: GNMT inhibition; at 40 µM; stronger effect = lower value
# How it was run: (§1)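 Each enzyme was assayed with SAM and its substrate. SAH formation detected by MTase-Glo luminescence; single-point 40 uM screen[…].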
# [2] = target: Guanidinoacetate N-methyltransferase (Homo sapiens) (UniProt Q14353); settings: purified enzyme, MTase-Glo SAH luminescence; measured here: GAMT inhibition; at 40 µM; stronger effect = lower value
# How it was run: as §1
# [3] = target: Histamine N-methyltransferase (Homo sapiens) (UniProt P50135); settings: purified enzyme, MTase-Glo SAH luminescence; measured here: HNMT inhibition; at 40 µM; stronger effect = lower value
# How it was run: as §1
# [4] = target: Nicotinamide N-methyltransferase (Homo sapiens) (UniProt P40261); settings: purified enzyme, MTase-Glo SAH luminescence; measured here: NNMT inhibition; at 40 µM; stronger effect = lower value
# How it was run: as §1
# [5] = target: Phenylethanolamine N-methyltransferase (Homo sapiens) (UniProt P11086); settings: purified enzyme, MTase-Glo SAH luminescence; measured here: PNMT inhibition; at 40 µM; stronger effect = lower value
# How it was run: as §1
# % is set by controls: 0 for no effect and ±100 for the full control effect.
smiles,measurement,setting,value
N[C@@H]1c2cccnc2[C@H](OC(=O)N2CCC(n3c(=O)[nH]c4ncccc43)CC2)CC[C@H]1c1cccc(F)c1F,"activity change, negative = inhibition",[1],-10.9%
same,"activity change, negative = inhibition",[2],1.28%
same,"activity change, negative = inhibition",[3],6.47%
same,"activity change, negative = inhibition",[4],-29.6%
same,"activity change, negative = inhibition",[5],-4.82%
CCCCN1C(=O)c2cc(C(=O)Nc3c(C)cc(C)cc3C)nn2CC1(C)C(=O)NC1CCCC1 (configuration not stated),"activity change, negative = inhibition",[1],5.62%
same,"activity change, negative = inhibition",[2],0.573%
same,"activity change, negative = inhibition",[3],-8.45%
same,"activity change, negative = inhibition",[4],0.029%
same,"activity change, negative = inhibition",[5],4.09%
COC1CC(O[C@H]2CC[C@]3(C)C4CC[C@]5(C)C(C6=CC(=O)OC6)=CCC56OC46CC[C@@H]3C2)OC(C)C1O[C@@H]1O[C@H](CO[C@@H]2O[C@H](CO)[C@@H](O)[C@H](O)[C@H]2O)[C@@H](O)[C@H](O)[C@H]1O (some centres not stated),"activity change, negative = inhibition",[1],0%
same,"activity change, negative = inhibition",[2],4.52%
same,"activity change, negative = inhibition",[3],8.22%
same,"activity change, negative = inhibition",[4],-9.89%
same,"activity change, negative = inhibition",[5],3.68%
c1ccc2cc(-c3noc([C@@H]4Cc5nc[nH]c5CN4CC4CCCCC4)n3)ccc2c1,"activity change, negative = inhibition",[1],-9.13%
same,"activity change, negative = inhibition",[2],-4.96%
same,"activity change, negative = inhibition",[3],-5.86%
same,"activity change, negative = inhibition",[4],-12%
same,"activity change, negative = inhibition",[5],-5.07%
Cc1c(Cl)cccc1N1C(=O)c2cc3ccccc3n2CC1(C)C(=O)NC1CCCC1 (configuration not stated),"activity change, negative = inhibition",[1],0.261%
same,"activity change, negative = inhibition",[2],4.7%
same,"activity change, negative = inhibition",[3],-4.11%
same,"activity change, negative = inhibition",[4],2.62%
same,"activity change, negative = inhibition",[5],-0.201%
CC(C)Cn1c(=O)c2ccc(C(=O)NC(C)C)cc2n2c(SCC(=O)NC3CCCCC3)nnc12,"activity change, negative = inhibition",[1],1.66%
same,"activity change, negative = inhibition",[2],-0.12%
same,"activity change, negative = inhibition",[3],11.3%
same,"activity change, negative = inhibition",[4],-1.01%
same,"activity change, negative = inhibition",[5],-0.979%
COCC(=O)N[C@H]1CCN(C(=O)COC)[C@H](C(=O)N[C@@H](Cc2cccs2)C(N)=O)C1,"activity change, negative = inhibition",[1],0.518%
same,"activity change, negative = inhibition",[2],-0.673%
same,"activity change, negative = inhibition",[3],2.26%
same,"activity change, negative = inhibition",[4],-1.6%
same,"activity change, negative = inhibition",[5],4.64%
CC(NC(=O)c1cc2n(n1)CC(C)(C(=O)NC1CCCC1)N(C)C2=O)c1ccccc1 (configuration not stated),"activity change, negative = inhibition",[1],3.06%
same,"activity change, negative = inhibition",[2],2.49%
same,"activity change, negative = inhibition",[3],1.36%
same,"activity change, negative = inhibition",[4],1.84%
same,"activity change, negative = inhibition",[5],-1.2%
COc1ccc(-c2cc3n(n2)CC(C)(C(=O)NCc2ccccc2)N(c2cc(C)cc(C)c2)C3=O)cc1 (configuration not stated),"activity change, negative = inhibition",[1],4.71%
same,"activity change, negative = inhibition",[2],0.313%
same,"activity change, negative = inhibition",[3],5.68%
same,"activity change, negative = inhibition",[4],4.13%
same,"activity change, negative = inhibition",[5],0.664%
CC(C)Cn1c(=O)c2ccc(C(=O)NC3CCCC3)cc2n2c(=O)n(CC(=O)Nc3ccccc3)nc12,"activity change, negative = inhibition",[1],5.47%
same,"activity change, negative = inhibition",[2],1.35%
same,"activity change, negative = inhibition",[3],6.24%
same,"activity change, negative = inhibition",[4],7.33%
same,"activity change, negative = inhibition",[5],5.34%
CN[C@@H](C)C(=O)N1CCC(c2cc(N3CCOCC3)nc(C)n2)CC1,"activity change, negative = inhibition",[1],-3%
same,"activity change, negative = inhibition",[2],-3.42%
same,"activity change, negative = inhibition",[3],-0.367%
same,"activity change, negative = inhibition",[4],-5.46%
same,"activity change, negative = inhibition",[5],-1.54%
NC(=O)[C@H](CC1CCCCC1)NC(=O)[C@@H]1CN(C(=O)Nc2ccccc2)CCN1S(=O)(=O)c1ccccc1,"activity change, negative = inhibition",[1],-7.78%
same,"activity change, negative = inhibition",[2],-9.89%
same,"activity change, negative = inhibition",[3],-7.08%
same,"activity change, negative = inhibition",[4],-19.7%
same,"activity change, negative = inhibition",[5],5.4%
CC(CN1C(=O)c2nc3ccccc3n2CC1(C)C(=O)NC1CCCCC1C)c1ccccc1 (configuration not stated),"activity change, negative = inhibition",[1],1.03%
same,"activity change, negative = inhibition",[2],2.49%
same,"activity change, negative = inhibition",[3],4.27%
same,"activity change, negative = inhibition",[4],0.388%
same,"activity change, negative = inhibition",[5],-1.3%
Cc1ccc(Cl)cc1NC(=O)N1CCn2cccc2C1C(C)C (configuration not stated),"activity change, negative = inhibition",[1],15.6%
same,"activity change, negative = inhibition",[2],2.34%
same,"activity change, negative = inhibition",[3],5.79%
same,"activity change, negative = inhibition",[4],3.35%
same,"activity change, negative = inhibition",[5],10%
Cc1cccc(CNC(=O)c2cc3n(n2)CC(C)(C(=O)NCCC(C)C)N(C)C3=O)c1 (configuration not stated),"activity change, negative = inhibition",[1],-3.38%
same,"activity change, negative = inhibition",[2],0.66%
same,"activity change, negative = inhibition",[3],-5.79%
same,"activity change, negative = inhibition",[4],-0.203%
same,"activity change, negative = inhibition",[5],-3.31%
COc1ccc(CC(=O)N2CCCC2C(=O)N2CCC(c3nc4ccncc4[nH]3)C2)cc1 (configuration not stated),"activity change, negative = inhibition",[1],-1.86%
same,"activity change, negative = inhibition",[2],-2.55%
same,"activity change, negative = inhibition",[3],-3.56%
same,"activity change, negative = inhibition",[4],0.701%
same,"activity change, negative = inhibition",[5],-1.73%
C[C@@]1(O)CCN(C(=O)c2cccc(F)c2)C[C@H]1N1CCCC1,"activity change, negative = inhibition",[1],-7.47%
same,"activity change, negative = inhibition",[2],-1.18%
same,"activity change, negative = inhibition",[3],0.549%
same,"activity change, negative = inhibition",[4],-1.72%
same,"activity change, negative = inhibition",[5],1.98%
CCCn1c(=O)c2ccc(C(=O)NC3CCCC3)cc2n2c(=O)n(CC(=O)Nc3ccccc3CC)nc12,"activity change, negative = inhibition",[1],5.79%
same,"activity change, negative = inhibition",[2],1.94%
same,"activity change, negative = inhibition",[3],11.4%
same,"activity change, negative = inhibition",[4],2.87%
same,"activity change, negative = inhibition",[5],2.3%
CC1(C(=O)NC2CCCCC2)Cn2c(cc3ccccc32)C(=O)N1C1CCN(Cc2ccccc2)CC1 (configuration not stated),"activity change, negative = inhibition",[1],0.562%
same,"activity change, negative = inhibition",[2],0.724%
same,"activity change, negative = inhibition",[3],0.629%
same,"activity change, negative = inhibition",[4],1.12%
same,"activity change, negative = inhibition",[5],-2.47%
CNC(=O)c1cc(C2CC2)nc2c1c(C1CCN(C(=O)Cc3ccc(OC)cc3)CC1)nn2C,"activity change, negative = inhibition",[1],-7.81%
same,"activity change, negative = inhibition",[2],-6.11%
same,"activity change, negative = inhibition",[3],-2.48%
same,"activity change, negative = inhibition",[4],-12.4%
same,"activity change, negative = inhibition",[5],-5.16%
CC(C)c1noc(C2CCCN(S(=O)(=O)c3cccs3)CCC(=O)NCC2)n1 (configuration not stated),"activity change, negative = inhibition",[1],-3.87%
same,"activity change, negative = inhibition",[2],-1.05%
same,"activity change, negative = inhibition",[3],-1.14%
same,"activity change, negative = inhibition",[4],2.7%
same,"activity change, negative = inhibition",[5],2.54%
CC(C)N1CCN(C(=O)C2CCN(c3cnn(CC4CC4)c(=O)c3)C2)CC1 (configuration not stated),"activity change, negative = inhibition",[1],-2.33%
same,"activity change, negative = inhibition",[2],-0.832%
same,"activity change, negative = inhibition",[3],-1.98%
same,"activity change, negative = inhibition",[4],-7.98%
same,"activity change, negative = inhibition",[5],-0.932%
CCc1cccc(NS(=O)(=O)c2cc3c(cc2C)n(C)c(=O)n3C)c1,"activity change, negative = inhibition",[1],6.52%
same,"activity change, negative = inhibition",[2],0%
same,"activity change, negative = inhibition",[3],1.52%
same,"activity change, negative = inhibition",[4],-0.867%
same,"activity change, negative = inhibition",[5],-3.34%
O=C1NCc2ccccc2CC12CCCN2Cc1ccc(F)cc1F (configuration not stated),"activity change, negative = inhibition",[1],-5.22%
same,"activity change, negative = inhibition",[2],-5.43%
same,"activity change, negative = inhibition",[3],-4.14%
same,"activity change, negative = inhibition",[4],-17.8%
same,"activity change, negative = inhibition",[5],-23.6%
CCOc1cc(CNC(=O)c2cc3n(n2)CC(C)(C(=O)NCc2ccc(C)cc2)N(C)C3=O)ccc1OC (configuration not stated),"activity change, negative = inhibition",[1],-0.369%
same,"activity change, negative = inhibition",[2],3.91%
same,"activity change, negative = inhibition",[3],1.99%
same,"activity change, negative = inhibition",[4],0.483%
same,"activity change, negative = inhibition",[5],0.74%
NC(=O)c1ccccc1Nc1ccnc(Nc2cccc(O)c2)n1,"activity change, negative = inhibition",[1],-27.1%
same,"activity change, negative = inhibition",[2],-5.75%
same,"activity change, negative = inhibition",[3],-25.9%
same,"activity change, negative = inhibition",[4],-51.5%
same,"activity change, negative = inhibition",[5],-6.11%
CCn1cc(S(=O)(=O)N2CCC(c3noc(-c4ccncc4)n3)C2)cn1 (configuration not stated),"activity change, negative = inhibition",[1],-0.551%
same,"activity change, negative = inhibition",[2],2.44%
same,"activity change, negative = inhibition",[3],2.39%
same,"activity change, negative = inhibition",[4],-1.94%
same,"activity change, negative = inhibition",[5],2.33%
O=C1Nc2ccc(-c3ccsc3)cc2C(=O)N2CCN(C(=O)CO)C[C@H]12,"activity change, negative = inhibition",[1],-9.88%
same,"activity change, negative = inhibition",[2],-1.09%
same,"activity change, negative = inhibition",[3],-7.35%
same,"activity change, negative = inhibition",[4],-1.93%
same,"activity change, negative = inhibition",[5],-5.32%
COC(=O)N[C@H](C(=O)N1[C@@H]2CC[C@@H](C2)[C@H]1c1nc2ccc(-c3ccc4c(c3)C(F)(F)c3cc(-c5cnc([C@@H]6CCC7(CC7)N6C(=O)[C@@H](NC(=O)OC)C(C)C)[nH]5)ccc3-4)cc2[nH]1)C(C)C,"activity change, negative = inhibition",[1],1.53%
same,"activity change, negative = inhibition",[3],2.23%
